The values that follow come from the supplement of paper PMC11348887.

Structures can show the parent of a compound that is named as a salt. The list shows a part of the results. Rule as the data show it: active = -2 or less and inactive = the rest. Many values rest on one well or one pass, so single values are uncertain.
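Also: nuclei counted from DAPI counterstain by automated high-content image analysis, four fields per well at ×20 in 384-well plates, with sequential b-score then z-score normalization.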

This test relates to hPSC-derived cortical neurons (WA09). As to the kind of experiment: nuclei number (viability) z-score; higher = more surviving cells. Conditions: 5 µM; treatment: days 7-14 after plating, readout day 21.
Regarding `Nc1nc(F)nc2c1ncn2[C@@H]1O[C@H](COP(=O)(O)O)[C@@H](O)[C@@H]1O` [Fludarabine Phosphate], the “nuclei number (z-score)” value is active: -4.19.

Consider `O=C(NOCC1CC1)c1ccc(F)c(F)c1Nc1ccc(I)cc1Cl`, for which the “nuclei number (z-score)” value is inactive: 1.31.

`CCOC(=O)N1CCC(=C2c3ccc(Cl)cc3CCc3cccnc32)CC1` [Loratadine]: the “nuclei number (z-score)” value is inactive: -0.639.

For `CC1(C)CCC(c2ccc(Cl)cc2)=C(CN2CCN(c3ccc(C(=O)NS(=O)(=O)c4ccc(N[C@H](CCN5CCOCC5)CSc5ccccc5)c(S(=O)(=O)C(F)(F)F)c4)cc3)CC2)C1` [ABT-263 (Navitoclax)], the “nuclei number (z-score)” value was active: -4.47.

As to `O=C(COc1ccc(C(=O)c2ccccc2)cc1)NC1CCN(Cc2ccccc2)CC1` [AdipoRon], the “nuclei number (z-score)” value is inactive: 1.04.

Consider `O=C1NC(=O)C(c2ccccc2)(c2ccccc2)N1` [Phenytoin], for which the “nuclei number (z-score)” value is inactive: 0.242.

For the compound `CC(C)(O)c1ccccc1CC[C@@H](SCC1(CC(=O)O)CC1)c1cccc(/C=C/c2ccc3ccc(Cl)cc3n2)c1` [Montelukast Sodium], the “nuclei number (z-score)” value was inactive: 0.198.

`O=C1NC(=O)C(=Cc2ccc(-c3ccc(F)cc3)o2)S1` (stereo in doubt): the “nuclei number (z-score)” value is inactive: 0.32.

Turning to `CCN[C@@H]1C[C@H](N)[C@@H](O[C@H]2OC(CN)=CC[C@H]2N)[C@H](O)[C@H]1O[C@H]1OC[C@](C)(O)[C@H](NC)[C@H]1O` [Netilmicin Sulfate], the “nuclei number (z-score)” value is inactive: 4.29.

Turning to `OC[C@@H](O)[C@@H](O)[C@@H](O)CO` [Ribitol], the “nuclei number (z-score)” value is inactive: -0.39.

Regarding `O=C(Nc1ccccc1)Nc1ccc(-c2ccc(C(=O)[C@@H]3CCC[C@H]3C(=O)O)cc2)cc1`, the “nuclei number (z-score)” value is inactive: 1.97.

Take `CN(C)C/C=C/C(=O)Nc1cc2c(Nc3ccc(F)c(Cl)c3)ncnc2cc1O[C@H]1CCOC1` [Afatinib (BIBW2992)]: the “nuclei number (z-score)” value is inactive: -0.48.

In the case of `CN(C)C/C=C/C(=O)Nc1cc2c(Nc3ccc(F)c(Cl)c3)ncnc2cc1O[C@H]1CCOC1` [Afatinib (BIBW2992) Dimaleate], the “nuclei number (z-score)” value is active: -5.62.

`NC(=O)[C@@H]1CCCN1C(=O)[C@H](Cc1c[nH]cn1)NC(=O)[C@@H]1CCC(=O)N1` [Protirelin]: the “nuclei number (z-score)” value is inactive: 1.74.

`O=C(NOCC(O)CO)c1cc(Br)c(F)c(F)c1Nc1ccc(I)cc1F` (stereo not given): the “nuclei number (z-score)” value was inactive: 0.0423.

For `CN(C)CC(c1ccc(O)cc1)C1(O)CCCCC1` (stereo not given) [Desvenlafaxine], the “nuclei number (z-score)” value is inactive: -0.224.

Turning to `CN(C)CC(c1ccc(O)cc1)C1(O)CCCCC1` (stereo not given) [Desvenlafaxine Succinate], the “nuclei number (z-score)” value was inactive: 0.73.

With `COc1ccc(S(=O)(=O)N(CCO)c2ccccc2CN(C)C/C=C/c2ccc(Cl)cc2)cc1` [KN-93 Phosphate], the “nuclei number (z-score)” value is inactive: -1.1.

Take `O=C(Nc1ccccc1Br)N[C@@H]1CCN(c2ccc(C(F)(F)F)cn2)C1`: the “nuclei number (z-score)” value is inactive: 0.0847.

With `CCN(CC)CCCC(C)Nc1nc(C)cc(Nc2ccc3nc(C)cc(N)c3c2)n1` (stereo not given), the “nuclei number (z-score)” value was inactive: -0.222.

In the case of `O=C(c1ccccc1)c1ccc2n1CCC2C(=O)O` (stereo not given) [Ketorolac], the “nuclei number (z-score)” value is inactive: -0.994.

For the compound `COc1c(N2CCNC(C)C2)c(F)cc2c(=O)c(C(=O)O)cn(C3CC3)c12` (stereo not given) [Gatifloxacin], the “nuclei number (z-score)” value is inactive: 0.66.

As to `C#CCC(Cc1cnc2nc(N)nc(N)c2n1)c1ccc(C(=O)N[C@@H](CCC(=O)O)C(=O)O)cc1` (stereo not given in full) [Pralatrexate], the “nuclei number (z-score)” value is inactive: 0.155.

For `O=C(C[S+]([O-])Cc1ccco1)NC/C=C\COc1cc(CN2CCCCC2)ccn1` (stereo not given) [Lafutidine], the “nuclei number (z-score)” value was inactive: -0.033.

Turning to `CCC(=O)Nc1cccc(Oc2nc(Nc3ccc(N4CCN(C)CC4)cc3OC)ncc2Cl)c1`, the “nuclei number (z-score)” value is inactive: 2.52.

Take `N#Cc1c(NC(=O)c2cccc3ccccc23)sc2c1CCCC2` [JNK Inhibitor IX]: the “nuclei number (z-score)” value was inactive: -0.197.

As for `C=CC(=O)Nc1cccc(Nc2nc(Nc3ccc(OCCOC)cc3)ncc2F)c1`, the “nuclei number (z-score)” value was inactive: -1.32.

Turning to `COC(=O)Nc1nc2cc([S+]([O-])c3ccccc3)ccc2[nH]1` (stereo not given) [Oxfendazole], the “nuclei number (z-score)” value is inactive: 1.18.

Regarding `CCc1c(Cl)c(O)c(Cl)c(O)c1C(=O)O[C@H]1[C@H](O)[C@H](OC)[C@H](OC/C2=C\C=C\C[C@H](O)/C(C)=C/[C@H](CC)[C@@H](O[C@@H]3OC(C)(C)[C@@H](OC(=O)C(C)C)[C@H](O)[C@@H]3O)/C(C)=C/C(C)=C/C[C@@H]([C@@H](C)O)OC2=O)O[C@@H]1C` [Fidaxomicin], the “nuclei number (z-score)” value was inactive: 0.394.

In the case of `Nc1ccn([C@@H]2CS[C@H](CO)O2)c(=O)n1` [Lamivudine], the “nuclei number (z-score)” value was inactive: 1.23.

In the case of `O=C1NCCCc2c1oc1ccc(O)cc21`, the “nuclei number (z-score)” value is inactive: 0.368.

`COc1ccccc1OCC(O)COC(N)=O` (stereo not given) [Methocarbamol]: the “nuclei number (z-score)” value was inactive: -0.444.

`CC(C)C[C@H](NC(=O)CNC(=O)c1cc(Cl)ccc1Cl)B1OC(=O)C(CC(=O)O)(CC(=O)O)O1`: the “nuclei number (z-score)” value is active: -6.26.

Consider `NCCCC[C@H](NC(=O)[C@@H](NC(=O)[C@H](Cc1c[nH]c2ccccc12)NC(=O)[C@H](CCCCN)NC(=O)[C@H](CCCCN)NC(=O)[C@H](Cc1c[nH]c2ccccc12)NC(=O)[C@H](Cc1c[nH]c2ccccc12)NC(=O)[C@H](CCCCN)NC(=O)[C@@H](N)CCCCN)C(c1ccccc1)c1ccccc1)C(N)=O`, for which the “nuclei number (z-score)” value was inactive: -1.06.

For `CCN(CC)CCCCNc1ncc2cc(-c3cc(OC)cc(OC)c3)c(NC(=O)NC(C)(C)C)nc2n1`, the “nuclei number (z-score)” value was inactive: -0.69.

Take `C[C@]1(Cn2ccnn2)[C@H](C(=O)O)N2C(=O)C[C@H]2S1(=O)=O` [Tazobactam]: the “nuclei number (z-score)” value is inactive: -0.513.

`CC[C@@H](CO)NCCN[C@@H](CC)CO` [Ethambutol HCl]: the “nuclei number (z-score)” value was inactive: 0.956.

As for `CCCOc1ccc(C(=O)OCCN(CC)CC)cc1N` [Proparacaine HCl], the “nuclei number (z-score)” value is inactive: 0.0262.

Consider `CCN(CC)CCOCCOC(=O)C(CC)(CC)c1ccccc1` [Oxeladin Citrate], for which the “nuclei number (z-score)” value is inactive: -1.87.

On to `CC1(C)[C@@H](OC(=O)CCC(=O)O)CC[C@]2(C)[C@H]3C(=O)C=C4[C@@H]5C[C@@](C)(C(=O)O)CC[C@]5(C)CC[C@@]4(C)[C@]3(C)CC[C@@H]12` [Carbenoxolone Sodium], for which the “nuclei number (z-score)” value is inactive: 1.43.
